Experimental data as given in paper PMC5869904.
No constants are given. Whether binding was seen depends on the method and setting. In cells and extracts the contact can be indirect. Some binding calls cover weakened binding; strength is not graded here.

Protein sequences, listed by entry. Tags and fused reporters are not part of them. Residues count along the entry.
UniProt Q9WV18, residues 20-960: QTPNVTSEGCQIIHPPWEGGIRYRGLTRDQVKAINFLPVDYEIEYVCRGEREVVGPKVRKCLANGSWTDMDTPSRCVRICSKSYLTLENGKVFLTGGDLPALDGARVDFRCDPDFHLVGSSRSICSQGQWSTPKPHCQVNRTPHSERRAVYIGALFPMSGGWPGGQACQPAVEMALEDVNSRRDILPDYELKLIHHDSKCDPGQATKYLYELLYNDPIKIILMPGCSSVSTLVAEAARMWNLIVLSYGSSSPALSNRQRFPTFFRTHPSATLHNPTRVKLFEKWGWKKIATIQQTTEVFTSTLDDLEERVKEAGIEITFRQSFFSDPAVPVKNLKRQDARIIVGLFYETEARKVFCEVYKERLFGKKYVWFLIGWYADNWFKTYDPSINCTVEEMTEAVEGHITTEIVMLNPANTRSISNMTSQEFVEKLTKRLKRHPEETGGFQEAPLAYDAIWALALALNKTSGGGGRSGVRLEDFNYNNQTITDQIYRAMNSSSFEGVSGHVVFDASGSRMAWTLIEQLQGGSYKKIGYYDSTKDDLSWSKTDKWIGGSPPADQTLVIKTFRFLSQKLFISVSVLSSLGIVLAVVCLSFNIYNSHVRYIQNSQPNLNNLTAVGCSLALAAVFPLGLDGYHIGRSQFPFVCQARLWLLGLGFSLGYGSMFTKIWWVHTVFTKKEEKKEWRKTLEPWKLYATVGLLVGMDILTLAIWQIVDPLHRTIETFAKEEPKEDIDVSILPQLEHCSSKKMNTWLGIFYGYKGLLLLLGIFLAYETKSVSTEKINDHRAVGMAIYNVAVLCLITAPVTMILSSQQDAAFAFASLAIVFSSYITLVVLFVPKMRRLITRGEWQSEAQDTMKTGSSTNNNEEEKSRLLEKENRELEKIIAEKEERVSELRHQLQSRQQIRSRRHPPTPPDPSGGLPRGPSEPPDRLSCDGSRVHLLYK
UniProt P97445: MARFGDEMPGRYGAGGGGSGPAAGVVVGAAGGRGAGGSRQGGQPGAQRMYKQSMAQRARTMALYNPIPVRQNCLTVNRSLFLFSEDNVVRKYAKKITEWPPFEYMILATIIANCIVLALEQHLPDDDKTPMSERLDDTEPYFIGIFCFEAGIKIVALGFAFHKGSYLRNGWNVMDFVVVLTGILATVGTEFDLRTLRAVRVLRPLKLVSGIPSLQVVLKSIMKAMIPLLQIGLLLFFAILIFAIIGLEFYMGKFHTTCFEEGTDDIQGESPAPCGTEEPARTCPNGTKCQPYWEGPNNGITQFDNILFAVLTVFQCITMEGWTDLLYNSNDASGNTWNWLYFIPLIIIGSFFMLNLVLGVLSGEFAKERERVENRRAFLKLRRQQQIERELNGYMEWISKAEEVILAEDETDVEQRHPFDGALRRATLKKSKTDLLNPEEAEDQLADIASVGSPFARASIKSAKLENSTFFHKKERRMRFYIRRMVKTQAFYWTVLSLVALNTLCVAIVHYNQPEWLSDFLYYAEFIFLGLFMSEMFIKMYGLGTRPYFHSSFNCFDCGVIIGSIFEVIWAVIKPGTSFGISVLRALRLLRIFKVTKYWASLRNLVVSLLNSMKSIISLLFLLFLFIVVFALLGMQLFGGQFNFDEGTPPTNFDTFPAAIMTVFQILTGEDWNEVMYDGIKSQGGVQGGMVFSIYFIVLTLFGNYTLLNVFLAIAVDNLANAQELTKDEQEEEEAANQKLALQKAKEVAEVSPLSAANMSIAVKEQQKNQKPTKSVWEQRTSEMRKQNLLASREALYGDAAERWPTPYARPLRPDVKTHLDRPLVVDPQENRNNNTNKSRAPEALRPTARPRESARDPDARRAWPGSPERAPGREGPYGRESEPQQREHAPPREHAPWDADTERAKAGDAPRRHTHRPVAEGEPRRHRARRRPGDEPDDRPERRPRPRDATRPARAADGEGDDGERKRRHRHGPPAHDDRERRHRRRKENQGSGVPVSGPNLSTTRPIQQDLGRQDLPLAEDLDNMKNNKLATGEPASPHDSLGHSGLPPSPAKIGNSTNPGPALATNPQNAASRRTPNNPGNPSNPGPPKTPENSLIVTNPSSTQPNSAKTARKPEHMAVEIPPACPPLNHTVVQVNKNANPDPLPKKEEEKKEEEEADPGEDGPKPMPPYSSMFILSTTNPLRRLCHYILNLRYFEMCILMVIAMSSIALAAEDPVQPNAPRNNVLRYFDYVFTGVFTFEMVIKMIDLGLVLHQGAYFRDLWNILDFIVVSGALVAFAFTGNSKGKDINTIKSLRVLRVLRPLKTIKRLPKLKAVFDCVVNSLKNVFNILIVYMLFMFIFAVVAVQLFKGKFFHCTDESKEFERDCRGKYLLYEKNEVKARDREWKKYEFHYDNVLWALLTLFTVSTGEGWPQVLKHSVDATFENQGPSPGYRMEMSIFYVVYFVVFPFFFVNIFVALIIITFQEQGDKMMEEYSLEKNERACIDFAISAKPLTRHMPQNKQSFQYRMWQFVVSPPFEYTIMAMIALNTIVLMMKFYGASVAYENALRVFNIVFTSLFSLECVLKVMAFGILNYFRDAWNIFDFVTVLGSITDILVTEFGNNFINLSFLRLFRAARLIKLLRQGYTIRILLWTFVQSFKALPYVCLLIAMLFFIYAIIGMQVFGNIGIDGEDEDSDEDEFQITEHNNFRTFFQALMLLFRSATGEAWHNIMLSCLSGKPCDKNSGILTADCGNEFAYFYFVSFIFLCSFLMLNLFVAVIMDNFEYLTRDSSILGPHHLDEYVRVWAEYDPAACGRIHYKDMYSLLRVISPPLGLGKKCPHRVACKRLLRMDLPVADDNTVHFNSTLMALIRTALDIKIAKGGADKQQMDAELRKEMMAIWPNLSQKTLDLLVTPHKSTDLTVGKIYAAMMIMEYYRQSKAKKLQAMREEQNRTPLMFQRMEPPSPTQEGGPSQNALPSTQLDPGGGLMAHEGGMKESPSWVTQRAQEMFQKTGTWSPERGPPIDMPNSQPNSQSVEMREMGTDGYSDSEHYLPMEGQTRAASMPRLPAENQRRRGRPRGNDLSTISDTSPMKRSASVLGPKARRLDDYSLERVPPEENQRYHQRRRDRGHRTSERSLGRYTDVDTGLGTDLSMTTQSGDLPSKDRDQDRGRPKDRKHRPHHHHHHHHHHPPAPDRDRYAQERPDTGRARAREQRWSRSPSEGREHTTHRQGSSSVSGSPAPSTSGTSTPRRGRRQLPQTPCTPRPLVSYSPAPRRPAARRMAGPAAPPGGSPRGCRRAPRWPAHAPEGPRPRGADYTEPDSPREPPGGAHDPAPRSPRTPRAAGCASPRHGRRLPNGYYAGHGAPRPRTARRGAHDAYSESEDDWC

T1: GIRK2 subunit of the G protein-gated inwardly rectifying K+ (GIRK/Kir3) channel (mouse (endogenous in cerebellum)) (UniProt P48542)
T1 sequence: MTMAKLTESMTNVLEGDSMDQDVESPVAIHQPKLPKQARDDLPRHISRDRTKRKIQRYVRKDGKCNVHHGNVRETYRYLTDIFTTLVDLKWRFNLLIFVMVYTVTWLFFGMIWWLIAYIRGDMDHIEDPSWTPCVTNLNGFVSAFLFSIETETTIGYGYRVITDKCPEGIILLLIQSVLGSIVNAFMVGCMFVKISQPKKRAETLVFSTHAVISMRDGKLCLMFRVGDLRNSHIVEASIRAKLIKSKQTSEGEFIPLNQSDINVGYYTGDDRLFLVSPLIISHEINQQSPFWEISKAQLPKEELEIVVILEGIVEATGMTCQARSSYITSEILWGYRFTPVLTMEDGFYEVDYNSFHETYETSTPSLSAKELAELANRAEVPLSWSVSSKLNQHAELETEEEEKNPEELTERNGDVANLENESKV


Columns and labels:
[1] = biological target: T1, GIRK2 subunit of the G protein-gated inwardly rectifying K+ (GIRK/Kir3) channel (mouse (endogenous in cerebellum)); experiment: condition: only in extracts from GABAB1 receptor knockout (GABAB1-/-) cerebellum; co-IP; GABAB1 receptor knock-out (GABAB1-/-) mouse cerebellar membrane extract solubilised in RIPA buffer; 2 ug antibody overnight at 0-4 C, TrueBlot anti-rabbit Ig IP beads; immunoblot
[2] = biological target: GABAB1 subunit of the GABAB receptor (mouse (endogenous in cerebellum)) (UniProt Q9WV18); experiment: co-IP; wild-type (GABAB1+/+) mouse cerebellar membrane extract solubilised in RIPA buffer (50 mM Tris-HCl pH 7.4, 100 mM NaCl, 1% Triton X-100, 0.5% sodium deoxycholate, 0.2% SDS, 1 mM EDTA); 2 ug antibody overnight at 0-4 C, TrueBlot anti-rabbit Ig IP beads; immunoblot
[3] = biological target: T1, GIRK2 subunit of the G protein-gated inwardly rectifying K+ (GIRK/Kir3) channel (mouse (endogenous in cerebellum)); experiment: as above
[4] = biological target: CaV2.1 subunit of P/Q-type voltage-dependent Ca2+ channels (mouse (endogenous in cerebellum)) (UniProt P97445); experiment: condition: only in extracts from GABAB1 receptor knockout (GABAB1-/-) cerebellum; co-IP; GABAB1 receptor knock-out (GABAB1-/-) mouse cerebellar membrane extract solubilised in RIPA buffer; 2 ug antibody overnight at 0-4 C, TrueBlot anti-rabbit Ig IP beads; immunoblot
[5] = biological target: CaV2.1 subunit of P/Q-type voltage-dependent Ca2+ channels (mouse (endogenous in cerebellum)) (UniProt P97445); experiment: co-IP; wild-type (GABAB1+/+) mouse cerebellar membrane extract solubilised in RIPA buffer (50 mM Tris-HCl pH 7.4, 100 mM NaCl, 1% Triton X-100, 0.5% sodium deoxycholate, 0.2% SDS, 1 mM EDTA); 2 ug antibody overnight at 0-4 C, TrueBlot anti-rabbit Ig IP beads; immunoblot

| binding [1] | binding [2] | binding [3] | binding [4] | binding [5] | Molecule |
| --- | --- | --- | --- | --- | --- |
| no binding | binds | binds |  |  | CaV2.1 subunit of P/Q-type voltage-dependent Ca2+ channels (from UniProt P97445 1-2368) |
|  | binds |  | no binding | binds | GIRK2 subunit of the G protein-gated inwardly rectifying K+ (GIRK/Kir3) channel (protein, UniProt P48542 1-425) MTMAKLTESMTNVLEGDSMDQDVESPVAIHQPKLPKQARDDLPRHISRDRTKRKIQRYVRKDGKCNVHHGNVRETYRYLTDIFTTLVDLKWRFNLLIFVMVYTVTWLFFGMIWWLIAYIRGDMDHIEDPSWTPCVTNLNGFVSAFLFSIETETTIGYGYRVITDKCPEGIILLLIQSVLGSIVNAFMVGCMFVKISQPKKRAETLVFSTHAVISMRDGKLCLMFRVGDLRNSHIVEASIRAKLIKSKQTSEGEFIPLNQSDINVGYYTGDDRLFLVSPLIISHEINQQSPFWEISKAQLPKEELEIVVILEGIVEATGMTCQARSSYITSEILWGYRFTPVLTMEDGFYEVDYNSFHETYETSTPSLSAKELAELANRAEVPLSWSVSSKLNQHAELETEEEEKNPEELTERNGDVANLENESKV |
